Measurements published in the supplement of paper PMC4967469.
IC50 is the fitted dose that halves viability relative to control wells, and lower means more sensitive; a fit beyond the top or the lowest dose is shown as a bound at that dose. AUC sums up the same curve from the lowest dose to the 256-fold higher top dose; the more sensitive the line, the further below 1. For some assays here: Where the top dose is marked as inferred, it comes from the curve model; the source does not state it. For some assays here: An entry number marks a drug with two screens in the source, which often give different values.

Columns and labels:
Assay in all cases: Viability of human cancer cell lines after 72 h of drug (GDSC screen)
Tretinoin = compound: CC1=C(/C=C/C(C)=C/C=C/C(C)=C/C(=O)O)C(C)(C)CCC1 [Tretinoin]; conditions: top dose 10 µM; top dose inferred
Method: (§1)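 Human cancer cell lines in 384-well plates, medium with 10% serum, drug for 72 h over a 256-fold dose range (nine 2-fold or five 4-fold steps up to the top dose). Adherent lines were fixed and stained with the nucleic acid dye Syto60, suspension lines read with resazurin; signal relative to control wells, capped at 0 and 100%. One two-parameter sigmoid per drug and line, fitted in a mixed model over all curves with the slope shared within a line.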

GSK690693 = compound: CCn1c(-c2nonc2N)nc2c(C#CC(C)(C)O)ncc(OC[C@H]3CCCNC3)c21 [GSK690693]; conditions: top dose 10.24 µM; top dose inferred
Method: as §1

UNC0638 = compound: COc1cc2c(NC3CCN(C(C)C)CC3)nc(C3CCCCC3)nc2cc1OCCCN1CCCC1 [UNC0638]
Method: as §1

WH-4-023 = compound: COc1ccc(N(C(=O)Oc2c(C)cccc2C)c2ccnc(Nc3ccc(N4CCN(C)CC4)cc3)n2)c(OC)c1 [WH-4-023]; conditions: top dose 5.12 µM; top dose inferred
Method: as §1

SB-505124 = compound: Cc1cccc(-c2[nH]c(C(C)(C)C)nc2-c2ccc3c(c2)OCO3)n1 [SB-505124]; conditions: top dose 10 µM; top dose inferred
Method: as §1

BX-795 = compound: O=C(NCCCNc1nc(Nc2cccc(NC(=O)N3CCCC3)c2)ncc1I)c1cccs1 [BX-795]; conditions: top dose 5 µM; top dose inferred
Method: as §1

PI-103 = compound: Oc1cccc(-c2nc(N3CCOCC3)c3oc4ncccc4c3n2)c1 [PI-103]; conditions: top dose 10.24 µM
Method: as §1

[1] = top dose 20 µM, screen: GDSC drug entry 1236, top dose inferred
[2] = top dose 40 µM, screen: GDSC drug entry 245

| Cell Line | AUC (Tretinoin) | IC50 (Tretinoin) | AUC (GSK690693) | IC50 (GSK690693) | AUC (UNC0638; [1]) | IC50 (UNC0638; [1]) | AUC (UNC0638; [2]) | IC50 (UNC0638; [2]) | AUC (WH-4-023) | IC50 (WH-4-023) | AUC (SB-505124) | IC50 (SB-505124) | AUC (BX-795) | IC50 (BX-795) | AUC (PI-103) | IC50 (PI-103) |
| --- | --- | --- | --- | --- | --- | --- | --- | --- | --- | --- | --- | --- | --- | --- | --- | --- |
| SH-4 (melanoma, adherent) | 0.95 | > 10 µM | 0.97 | > 10.2 µM | 0.777 | 13.2 µM | 0.644 | 7.8 µM | 0.732 | 2.16 µM | 0.96 | > 10 µM | 0.903 | > 5 µM | 0.745 | 4.89 µM |
| SHP-77 (small cell lung carcinoma, semi-adherent) | 0.992 | > 10 µM | 0.985 | > 10.2 µM | 0.966 | > 20 µM | 0.764 | 13.1 µM | 0.98 | > 5.12 µM | 0.991 | > 10 µM | 0.991 | > 5 µM | 0.815 | 4.89 µM |
| SIMA (neuroblastoma, adherent) | 0.985 | > 10 µM | 0.953 | > 10.2 µM | 0.804 | 11.6 µM | 0.689 | 9.14 µM | 0.838 | 4.12 µM | 0.96 | > 10 µM | 0.95 | > 5 µM | 0.723 | 3.02 µM |
| SJSA-1 (bone, adherent) | 0.975 | > 10 µM | 0.907 | > 10.2 µM | 0.755 | 7.56 µM | 0.662 | 7.48 µM | 0.967 | > 5.12 µM | 0.966 | > 10 µM | 0.904 | > 5 µM | 0.507 | 0.67 µM |
| SK-ES-1 (Ewing sarcoma, semi-adherent) | 0.9 | > 10 µM | 0.862 | 9.69 µM | 0.855 | 17.5 µM | 0.676 | 8.04 µM | 0.971 | > 5.12 µM | 0.971 | > 10 µM | 0.811 | 2.87 µM | 0.558 | 0.93 µM |
| SK-LMS-1 (soft tissue, adherent) | 0.965 | > 10 µM | 0.967 | > 10.2 µM | 0.785 | 8.13 µM | 0.784 | 16.1 µM | 0.977 | > 5.12 µM | 0.97 | > 10 µM | 0.822 | 2.74 µM | 0.297 | 0.178 µM |
| SK-MEL-1 (melanoma, suspension) | 0.993 | > 10 µM | 0.992 | > 10.2 µM | 0.827 | 10.1 µM | 0.755 | 12 µM | 0.99 | > 5.12 µM | 0.971 | > 10 µM | 0.951 | > 5 µM | 0.92 | > 10.2 µM |
| SK-MEL-2 (melanoma, adherent) | 0.972 | > 10 µM | 0.972 | > 10.2 µM | 0.829 | 13.1 µM | 0.879 | > 40 µM | 0.957 | > 5.12 µM | 0.985 | > 10 µM | 0.867 | 4.79 µM | 0.795 | 4.94 µM |
| SK-MM-2 (myeloma, suspension) | 0.985 | > 10 µM | 0.857 | 8.91 µM | 0.808 | 10.9 µM | 0.673 | 7.77 µM | 0.974 | > 5.12 µM | 0.986 | > 10 µM | 0.967 | > 5 µM | 0.496 | 0.624 µM |
| SK-N-FI (neuroblastoma, adherent) | 0.958 | > 10 µM | 0.988 | > 10.2 µM | 0.988 | > 20 µM | 0.974 | > 40 µM | 0.971 | > 5.12 µM | 0.952 | > 10 µM | 0.989 | > 5 µM | 0.848 | 7.55 µM |
| SK-PN-DW (Ewing sarcoma, adherent) | 0.838 | 7.1 µM | 0.898 | > 10.2 µM | 0.815 | 11.5 µM | 0.78 | 17.1 µM | 0.972 | > 5.12 µM | 0.961 | > 10 µM | 0.733 | 1.48 µM | 0.662 | 1.84 µM |
| SK-UT-1 (soft tissue, adherent) | 0.976 | > 10 µM | 0.989 | > 10.2 µM | 0.988 | > 20 µM | 0.989 | > 40 µM | 0.924 | > 5.12 µM | 0.98 | > 10 µM | 0.81 | 2.34 µM | 0.814 | 4.97 µM |
| SLVL (B-cell lymphoma, suspension) | 0.97 | > 10 µM | 0.863 | 9.74 µM | 0.782 | 8.91 µM | 0.641 | 6.29 µM | 0.955 | > 5.12 µM | 0.973 | > 10 µM | 0.973 | > 5 µM | 0.354 | 0.246 µM |
| SNB75 (glioma, adherent) | 0.964 | > 10 µM | 0.909 | > 10.2 µM | 0.774 | 11.8 µM | 0.636 | 7.1 µM | 0.557 | 0.493 µM | 0.925 | > 10 µM | 0.882 | > 5 µM | 0.688 | 2.77 µM |
| SNU-C1 (large intestine, suspension) | 0.953 | > 10 µM | 0.939 | > 10.2 µM | 0.773 | 11.8 µM | 0.909 | > 40 µM | 0.98 | > 5.12 µM | 0.962 | > 10 µM | 0.909 | > 5 µM | 0.98 | > 10.2 µM |
| SNU-C2B (large intestine, adherent) | 0.945 | > 10 µM | 0.977 | > 10.2 µM | 0.843 | > 20 µM | 0.703 | 11.3 µM | 0.873 | > 5.12 µM | 0.978 | > 10 µM | 0.937 | > 5 µM | 0.782 | 5.79 µM |
| SR (lymphoid neoplasm, suspension) | 0.987 | > 10 µM | 0.897 | > 10.2 µM | 0.75 | 5.97 µM | 0.575 | 3.92 µM | 0.977 | > 5.12 µM | 0.947 | > 10 µM | 0.711 | 1.15 µM | 0.171 | 0.0745 µM |
